The chains are these.
B1: TNFα dAb Fc variant L79K (Fc fusion, name in Kabat numbering)
chain: DIQMTQSPSSLSASVGDRVTITCRASQAIDSYLHWYQQKPGKAPKLLIYSASNLETGVPSRFSGSGSGTDFTLTISSLKPEDFATYYCQQVVWRPFTFGQGTKVEIKRV[human IgG1 Fc with changes left out]
B2: TNFα dAb Fc variant P59A (Fc fusion, name in Kabat numbering)
chain: DIQMTQSPSSLSASVGDRVTITCRASQAIDSYLHWYQQKPGKAPKLLIYSASNLETGVASRFSGSGSGTDFTLTISSLLPEDFATYYCQQVVWRPFTFGQGTKVEIKRV[human IgG1 Fc with changes left out]
B3: TNFα dAb Fc variant Q38Y (Fc fusion, name in Kabat numbering)
chain: DIQMTQSPSSLSASVGDRVTITCRASQAIDSYLHWYQYKPGKAPKLLIYSASNLETGVPSRFSGSGSGTDFTLTISSLLPEDFATYYCQQVVWRPFTFGQGTKVEIKRV[human IgG1 Fc with changes left out]
B4: TNFα dAb Fc variant P59L (Fc fusion, name in Kabat numbering)
chain: DIQMTQSPSSLSASVGDRVTITCRASQAIDSYLHWYQQKPGKAPKLLIYSASNLETGVLSRFSGSGSGTDFTLTISSLLPEDFATYYCQQVVWRPFTFGQGTKVEIKRV[human IgG1 Fc with changes left out]
B5: TNFα dAb Fc variant Q37K (Fc fusion, name in Kabat numbering)
chain: DIQMTQSPSSLSASVGDRVTITCRASQAIDSYLHWYKQKPGKAPKLLIYSASNLETGVPSRFSGSGSGTDFTLTISSLLPEDFATYYCQQVVWRPFTFGQGTKVEIKRV[human IgG1 Fc with changes left out]
B6: TNFα dAb Fc variant L79S (Fc fusion, name in Kabat numbering)
chain: DIQMTQSPSSLSASVGDRVTITCRASQAIDSYLHWYQQKPGKAPKLLIYSASNLETGVPSRFSGSGSGTDFTLTISSLSPEDFATYYCQQVVWRPFTFGQGTKVEIKRV[human IgG1 Fc with changes left out]
B7: TNFα dAb Fc variant P40D (Fc fusion, name in Kabat numbering)
chain: DIQMTQSPSSLSASVGDRVTITCRASQAIDSYLHWYQQKDGKAPKLLIYSASNLETGVPSRFSGSGSGTDFTLTISSLLPEDFATYYCQQVVWRPFTFGQGTKVEIKRV[human IgG1 Fc with changes left out]
B8: TNFα dAb Fc variant Q38K (Fc fusion, name in Kabat numbering)
chain: DIQMTQSPSSLSASVGDRVTITCRASQAIDSYLHWYQKKPGKAPKLLIYSASNLETGVPSRFSGSGSGTDFTLTISSLLPEDFATYYCQQVVWRPFTFGQGTKVEIKRV[human IgG1 Fc with changes left out]
B9: TNFα dAb Fc variant P40L (Fc fusion, name in Kabat numbering)
chain: DIQMTQSPSSLSASVGDRVTITCRASQAIDSYLHWYQQKLGKAPKLLIYSASNLETGVPSRFSGSGSGTDFTLTISSLLPEDFATYYCQQVVWRPFTFGQGTKVEIKRV[human IgG1 Fc with changes left out]
B10: TNFα dAb Fc variant P44S (Fc fusion, name in Kabat numbering)
chain: DIQMTQSPSSLSASVGDRVTITCRASQAIDSYLHWYQQKPGKASKLLIYSASNLETGVPSRFSGSGSGTDFTLTISSLLPEDFATYYCQQVVWRPFTFGQGTKVEIKRV[human IgG1 Fc with changes left out]
B11: TNFα dAb Fc variant Q38S (Fc fusion, name in Kabat numbering)
chain: DIQMTQSPSSLSASVGDRVTITCRASQAIDSYLHWYQSKPGKAPKLLIYSASNLETGVPSRFSGSGSGTDFTLTISSLLPEDFATYYCQQVVWRPFTFGQGTKVEIKRV[human IgG1 Fc with changes left out]
B12: TNFα dAb Fc variant P40Y (Fc fusion, name in Kabat numbering)
chain: DIQMTQSPSSLSASVGDRVTITCRASQAIDSYLHWYQQKYGKAPKLLIYSASNLETGVPSRFSGSGSGTDFTLTISSLLPEDFATYYCQQVVWRPFTFGQGTKVEIKRV[human IgG1 Fc with changes left out]
B13: TNFα dAb Fc variant P59Q (Fc fusion, name in Kabat numbering)
chain: DIQMTQSPSSLSASVGDRVTITCRASQAIDSYLHWYQQKPGKAPKLLIYSASNLETGVQSRFSGSGSGTDFTLTISSLLPEDFATYYCQQVVWRPFTFGQGTKVEIKRV[human IgG1 Fc with changes left out]
B14: TNFα dAb Fc variant P59H (Fc fusion, name in Kabat numbering)
chain: DIQMTQSPSSLSASVGDRVTITCRASQAIDSYLHWYQQKPGKAPKLLIYSASNLETGVHSRFSGSGSGTDFTLTISSLLPEDFATYYCQQVVWRPFTFGQGTKVEIKRV[human IgG1 Fc with changes left out]
B15: TNFα dAb Fc variant P44L (Fc fusion, name in Kabat numbering)
chain: DIQMTQSPSSLSASVGDRVTITCRASQAIDSYLHWYQQKPGKALKLLIYSASNLETGVPSRFSGSGSGTDFTLTISSLLPEDFATYYCQQVVWRPFTFGQGTKVEIKRV[human IgG1 Fc with changes left out]
B16: TNFα dAb Fc variant P40S (Fc fusion, name in Kabat numbering)
chain: DIQMTQSPSSLSASVGDRVTITCRASQAIDSYLHWYQQKSGKAPKLLIYSASNLETGVPSRFSGSGSGTDFTLTISSLLPEDFATYYCQQVVWRPFTFGQGTKVEIKRV[human IgG1 Fc with changes left out]
B17: TNFα dAb Fc variant P40H (Fc fusion, name in Kabat numbering)
chain: DIQMTQSPSSLSASVGDRVTITCRASQAIDSYLHWYQQKHGKAPKLLIYSASNLETGVPSRFSGSGSGTDFTLTISSLLPEDFATYYCQQVVWRPFTFGQGTKVEIKRV[human IgG1 Fc with changes left out]
B18: TNFα dAb Fc variant Q38H (Fc fusion, name in Kabat numbering)
chain: DIQMTQSPSSLSASVGDRVTITCRASQAIDSYLHWYQHKPGKAPKLLIYSASNLETGVPSRFSGSGSGTDFTLTISSLLPEDFATYYCQQVVWRPFTFGQGTKVEIKRV[human IgG1 Fc with changes left out]
B19: TNFα dAb Fc variant P44D (Fc fusion, name in Kabat numbering)
chain: DIQMTQSPSSLSASVGDRVTITCRASQAIDSYLHWYQQKPGKADKLLIYSASNLETGVPSRFSGSGSGTDFTLTISSLLPEDFATYYCQQVVWRPFTFGQGTKVEIKRV[human IgG1 Fc with changes left out]
B20: TNFα dAb Fc variant P59S (Fc fusion, name in Kabat numbering)
chain: DIQMTQSPSSLSASVGDRVTITCRASQAIDSYLHWYQQKPGKAPKLLIYSASNLETGVSSRFSGSGSGTDFTLTISSLLPEDFATYYCQQVVWRPFTFGQGTKVEIKRV[human IgG1 Fc with changes left out]
B21: TNFα dAb Fc variant P59D (Fc fusion, name in Kabat numbering)
chain: DIQMTQSPSSLSASVGDRVTITCRASQAIDSYLHWYQQKPGKAPKLLIYSASNLETGVDSRFSGSGSGTDFTLTISSLLPEDFATYYCQQVVWRPFTFGQGTKVEIKRV[human IgG1 Fc with changes left out]
B22: TNFα dAb Fc variant P44Y (Fc fusion, name in Kabat numbering)
chain: DIQMTQSPSSLSASVGDRVTITCRASQAIDSYLHWYQQKPGKAYKLLIYSASNLETGVPSRFSGSGSGTDFTLTISSLLPEDFATYYCQQVVWRPFTFGQGTKVEIKRV[human IgG1 Fc with changes left out]
B23: TNFα dAb Fc variant P40Q (Fc fusion, name in Kabat numbering)
chain: DIQMTQSPSSLSASVGDRVTITCRASQAIDSYLHWYQQKQGKAPKLLIYSASNLETGVPSRFSGSGSGTDFTLTISSLLPEDFATYYCQQVVWRPFTFGQGTKVEIKRV[human IgG1 Fc with changes left out]
B24: TNFα dAb Fc variant P59K (Fc fusion, name in Kabat numbering)
chain: DIQMTQSPSSLSASVGDRVTITCRASQAIDSYLHWYQQKPGKAPKLLIYSASNLETGVKSRFSGSGSGTDFTLTISSLLPEDFATYYCQQVVWRPFTFGQGTKVEIKRV[human IgG1 Fc with changes left out]
B25: TNFα dAb Fc variant Q37H (Fc fusion, name in Kabat numbering)
chain: DIQMTQSPSSLSASVGDRVTITCRASQAIDSYLHWYHQKPGKAPKLLIYSASNLETGVPSRFSGSGSGTDFTLTISSLLPEDFATYYCQQVVWRPFTFGQGTKVEIKRV[human IgG1 Fc with changes left out]
B26: TNFα dAb Fc variant P59Y (Fc fusion, name in Kabat numbering)
chain: DIQMTQSPSSLSASVGDRVTITCRASQAIDSYLHWYQQKPGKAPKLLIYSASNLETGVYSRFSGSGSGTDFTLTISSLLPEDFATYYCQQVVWRPFTFGQGTKVEIKRV[human IgG1 Fc with changes left out]
B27: TNFα dAb Fc variant P44A (Fc fusion, name in Kabat numbering)
chain: DIQMTQSPSSLSASVGDRVTITCRASQAIDSYLHWYQQKPGKAAKLLIYSASNLETGVPSRFSGSGSGTDFTLTISSLLPEDFATYYCQQVVWRPFTFGQGTKVEIKRV[human IgG1 Fc with changes left out]
B28: TNFα dAb Fc variant Q38A (Fc fusion, name in Kabat numbering)
chain: DIQMTQSPSSLSASVGDRVTITCRASQAIDSYLHWYQAKPGKAPKLLIYSASNLETGVPSRFSGSGSGTDFTLTISSLLPEDFATYYCQQVVWRPFTFGQGTKVEIKRV[human IgG1 Fc with changes left out]
B29: TNFα dAb Fc variant L79Y (Fc fusion, name in Kabat numbering)
chain: DIQMTQSPSSLSASVGDRVTITCRASQAIDSYLHWYQQKPGKAPKLLIYSASNLETGVPSRFSGSGSGTDFTLTISSLYPEDFATYYCQQVVWRPFTFGQGTKVEIKRV[human IgG1 Fc with changes left out]
B30: TNFα dAb Fc variant P40K (Fc fusion, name in Kabat numbering)
chain: DIQMTQSPSSLSASVGDRVTITCRASQAIDSYLHWYQQKKGKAPKLLIYSASNLETGVPSRFSGSGSGTDFTLTISSLLPEDFATYYCQQVVWRPFTFGQGTKVEIKRV[human IgG1 Fc with changes left out]
B31: TNFα dAb Fc variant P40A (Fc fusion, name in Kabat numbering)
chain: DIQMTQSPSSLSASVGDRVTITCRASQAIDSYLHWYQQKAGKAPKLLIYSASNLETGVPSRFSGSGSGTDFTLTISSLLPEDFATYYCQQVVWRPFTFGQGTKVEIKRV[human IgG1 Fc with changes left out]

The first experiment has as its target recombinant human TNFα (human, UniProt P01375 fragment). In words: cell-based or functional assay.
Regarding B1, the Standardized EC50, L929 neutralization assay (5-point) is 0.503 µg/mL.
Still for that read-out and setting: the same measure for B2: 0.452 µg/mL; for B3: 5050 µg/mL.
Same read-out and setting: the same measure for B4: 2.25 µg/mL; for B5: 6.57 µg/mL.
Still for that read-out and setting: with B6 the figure was 0.378 µg/mL; with B7, 1.64 µg/mL; with B8, 1.89 µg/mL.
Turning to B9, the Standardized EC50, L929 neutralization assay (5-point) was determined as 5.7 µg/mL.
Still for that read-out and setting: with B10 the figure was 28.8 µg/mL; with B11, 1.84 µg/mL; with B12, 26.7 µg/mL.
Still for that read-out and setting: with B13 the figure was 1.17 µg/mL.
Consider B14, for which the Standardized EC50, L929 neutralization assay (5-point) came out at 0.971 µg/mL.
In the case of B15, the Standardized EC50, L929 neutralization assay (5-point) was 6.19 µg/mL.
Still for that read-out and setting: the same measure for B16: 2.85 µg/mL.
The same measure, in the same setting: with B17 the figure was 3.29 µg/mL.
Same read-out and setting: the same measure for B18: 1.01 µg/mL; for B19: 802 µg/mL; for B20: 0.689 µg/mL.
Take B21: the Standardized EC50, L929 neutralization assay (5-point) was found to be 0.697 µg/mL.
For B22, the Standardized EC50, L929 neutralization assay (5-point) worked out at 27.5 µg/mL.
The same measure, in the same setting: with B23 the figure was 5.35 µg/mL.
For B24, the Standardized EC50, L929 neutralization assay (5-point) was 7.04 µg/mL.
Still for that read-out and setting: with B25 the figure was 16.4 µg/mL; with B26, 1.76 µg/mL.
Same read-out and setting: with B27 the figure was 24.4 µg/mL; with B28, 9.11 µg/mL; with B29, 0.392 µg/mL.
Still for that read-out and setting: with B30 the figure was 5.29 µg/mL; with B31, 1.65 µg/mL.

The next experiment concerns the target T1, recombinant human TNFα (CytoLab) (human, UniProt P01375 fragment).
T1 construct: coated on the ELISA plate at 1 µg/ml; also called Tumour necrosis factor alpha
As to the kind of experiment: ELISA on coated human TNFα. (In general: An ELISA detects its analyte on a solid surface through an enzyme-linked reagent.)
Regarding B1, the “A450 (AU)” value came to 1.26 AU.
For B2, the “A450 (AU)” value turned out to be 0.219 AU.
Still for that read-out and setting: the same measure for B3: 0.793 AU; for B4: 0.901 AU.
The same measure, in the same setting: with B5 the figure was 1.04 AU; with B6, 1.39 AU.
On the same count and under the same terms, the same measure for B7: 1.09 AU; for B8: 0.909 AU; for B9: 1 AU.
On to B10, for which the “A450 (AU)” value was 0.247 AU.
Still for that read-out and setting: with B11 the figure was 0.992 AU; with B12, 1.05 AU; with B13, 1.05 AU.
Same read-out and setting: the same measure for B14: 1.26 AU.
For the molecule B15, the “A450 (AU)” value is 1.11 AU.
On the same count and under the same terms, the same measure for B16: 1.03 AU; for B17: 0.99 AU; for B18: 1.1 AU.
Same read-out and setting: with B19 the figure was 0.163 AU; with B20, 1.12 AU.
The same measure, in the same setting: with B21 the figure was 1.12 AU; with B22, 0.339 AU; with B23, 1.05 AU.
For the molecule B24, the “A450 (AU)” value was 0.691 AU.
Still for that read-out and setting: the same measure for B25: 0.947 AU.
Regarding B26, the “A450 (AU)” value worked out at 0.893 AU.
Still for that read-out and setting: the same measure for B27: 0.261 AU; for B28: 0.783 AU.
On the same count and under the same terms, with B29 the figure was 1.41 AU.
Still for that read-out and setting: with B30 the figure was 1.04 AU.
In the case of B31, the “A450 (AU)” value is 0.901 AU.
